Measured values as given in EPA's CvTdb concentration-time database.
Further values from the same series stand in other lists.

Legend:
Assay in all cases: concentration in plasma after dosing
Rat [1] = conditions: dosed: Formamide, 36 mg/kg, oral, Female, Harlan Sprague Dawley
Rat [2] = conditions: dosed: Formamide, 36 mg/kg, oral, Male, Harlan Sprague Dawley
Rat [3] = system: Rat
Rat [4] = conditions: 5 h; dosed: Pyridine; 200 mg/kg; oral; Female; F344
Rat [5] = conditions: dosed: Pyridine, 25 mg/kg, oral, Female, F344

NC=O [Formamide]
concentration in plasma [ng/mL]
Conditions	0.25 h	5 h	8 h	12 h
Rat [1]	25800	48400	–	–
Rat [2]	–	–	40800	30600

concentration in plasma [ng/mL], Rat [3], dosed: Formamide
Conditions	Female	Male
0.25 h, 30 mg/kg, iv, F344	40500	–
0.25 h, 36 mg/kg, oral, Harlan Sprague Dawley	24900	26100
0.25 h, 90 mg/kg, iv, Harlan Sprague Dawley	–	116000
0.25 h, 300 mg/kg, oral, F344	–	155000
0.25 h, 300 mg/kg, oral, Harlan Sprague Dawley	150000	–
0.25 h, 600 mg/kg, oral, Harlan Sprague Dawley	402000	402000
0.5 h, 30 mg/kg, iv, F344	33400	–
0.5 h, 36 mg/kg, oral, Harlan Sprague Dawley	41200	33000
0.5 h, 90 mg/kg, iv, Harlan Sprague Dawley	–	111000
0.5 h, 90 mg/kg, iv, Harlan Sprague Dawley - this seems too small	–	120000
0.5 h, 300 mg/kg, oral, Harlan Sprague Dawley	185000	–
0.5 h, 600 mg/kg, oral, F344	610000	–
0.5 h, 600 mg/kg, oral, Harlan Sprague Dawley	712000	–
1 h, 30 mg/kg, iv, F344	36400	–
1 h, 36 mg/kg, oral, Harlan Sprague Dawley	45800	46600
1 h, 90 mg/kg, iv, Harlan Sprague Dawley	–	193000
1 h, 300 mg/kg, oral, F344	170000	–
1 h, 300 mg/kg, oral, Harlan Sprague Dawley	180000	–
1 h, 600 mg/kg, oral, Harlan Sprague Dawley	685000	800000
1.5 h, 36 mg/kg, oral, Harlan Sprague Dawley	47900	42000
1.5 h, 300 mg/kg, oral, Harlan Sprague Dawley	276000	–
1.5 h, 600 mg/kg, oral, Harlan Sprague Dawley	727000	761000
2 h, 30 mg/kg, iv, F344	43100	–
2 h, 36 mg/kg, oral, Harlan Sprague Dawley	41400	–
2 h, 90 mg/kg, iv, Harlan Sprague Dawley	–	135000
2 h, 300 mg/kg, oral, F344	208000	–
2 h, 300 mg/kg, oral, Harlan Sprague Dawley	254000	–
2 h, 600 mg/kg, oral, Harlan Sprague Dawley	542000	782000
3 h, 30 mg/kg, iv, F344	33100	–
3 h, 90 mg/kg, iv, Harlan Sprague Dawley	–	141000
5 h, 30 mg/kg, iv, F344	29900	–
5 h, 36 mg/kg, oral, Harlan Sprague Dawley	42600	48800
5 h, 90 mg/kg, iv, Harlan Sprague Dawley	–	103000
5 h, 300 mg/kg, oral, F344	–	244000
5 h, 300 mg/kg, oral, Harlan Sprague Dawley	245000	–
5 h, 600 mg/kg, oral, Harlan Sprague Dawley	750000	813000
5 min, 30 mg/kg, iv, F344	42800	–
5 min, 36 mg/kg, oral, Harlan Sprague Dawley	5000	–
5 min, 90 mg/kg, iv, Harlan Sprague Dawley	–	141000
5 min, 300 mg/kg, oral, F344	61900	–
5 min, 300 mg/kg, oral, Harlan Sprague Dawley	50100	–
5 min, 600 mg/kg, oral, Harlan Sprague Dawley	226000	175000
8 h, 30 mg/kg, iv, F344	24200	–
8 h, 36 mg/kg, oral, Harlan Sprague Dawley	31200	44100
8 h, 90 mg/kg, iv, Harlan Sprague Dawley	–	96000
8 h, 300 mg/kg, oral, Harlan Sprague Dawley	386000	–
8 h, 600 mg/kg, oral, F344	–	701000
8 h, 600 mg/kg, oral, Harlan Sprague Dawley	725000	700000
10 min, 30 mg/kg, iv, F344	46800	–
10 min, 36 mg/kg, oral, Harlan Sprague Dawley	19600	–
10 min, 90 mg/kg, iv, Harlan Sprague Dawley	–	53400
10 min, 300 mg/kg, oral, F344	137000	–
10 min, 300 mg/kg, oral, Harlan Sprague Dawley	87600	–
10 min, 600 mg/kg, oral, Harlan Sprague Dawley	509000	452000
12 h, 30 mg/kg, iv, F344	21300	–
12 h, 36 mg/kg, oral, Harlan Sprague Dawley	25500	32400
12 h, 90 mg/kg, iv, Harlan Sprague Dawley	–	88600
12 h, 300 mg/kg, oral, Harlan Sprague Dawley	340000	–
12 h, 600 mg/kg, oral, F344	–	626000
12 h, 600 mg/kg, oral, Harlan Sprague Dawley	637000	603000
18 h, 30 mg/kg, iv, F344	16400	–
18 h, 90 mg/kg, iv, Harlan Sprague Dawley	–	30100
20 h, 36 mg/kg, oral, Harlan Sprague Dawley	18100	–
20 h, 300 mg/kg, oral, F344	155000	–
20 h, 300 mg/kg, oral, Harlan Sprague Dawley	204000	–
20 h, 600 mg/kg, oral, Harlan Sprague Dawley	293000	491000
24 h, 30 mg/kg, iv, F344	4200	–
24 h, 90 mg/kg, iv, Harlan Sprague Dawley	–	31900
30 h, 36 mg/kg, oral, Harlan Sprague Dawley	9200	10400
30 h, 300 mg/kg, oral, Harlan Sprague Dawley	166000	–
30 h, 600 mg/kg, oral, Harlan Sprague Dawley	191000	373000
36 h, 30 mg/kg, iv, F344	2100	–
36 h, 90 mg/kg, iv, Harlan Sprague Dawley	–	20600
48 h, 30 mg/kg, iv, F344	1200	–
48 h, 36 mg/kg, oral, Harlan Sprague Dawley	3700	4600
48 h, 90 mg/kg, iv, Harlan Sprague Dawley	–	13100
48 h, 90 mg/kg, iv, Harlan Sprague Dawley - this seems too small	–	5400
48 h, 300 mg/kg, oral, Harlan Sprague Dawley	60900	–
48 h, 600 mg/kg, oral, F344	133000	–
48 h, 600 mg/kg, oral, Harlan Sprague Dawley	78600	–
72 h, 36 mg/kg, oral, Harlan Sprague Dawley	2600	2800
72 h, 300 mg/kg, oral, F344	3100	–
72 h, 300 mg/kg, oral, Harlan Sprague Dawley	25400	–
72 h, 600 mg/kg, oral, Harlan Sprague Dawley	29300	45000
96 h, 90 mg/kg, iv, Harlan Sprague Dawley	–	2700

c1ccncc1 [Pyridine]
Conditions	concentration in plasma [ng/mL]
Rat [4]	75400

concentration in plasma [ng/mL], Rat [3], dosed: Pyridine
Conditions	iv	oral
0.05 h, 5 mg/kg, Female, F344	4590	–
0.25 h, 0.5 mg/kg, Male, F344	269	–
0.25 h, 5 mg/kg, Female, F344	3510	–
0.25 h, 10 mg/kg, Male, Harlan Sprague Dawley	4190	–
0.5 h, 5 mg/kg, Female, F344	3200	2790
0.5 h, 25 mg/kg, Female, F344	–	17500
0.5 h, 100 mg/kg, Male, F344	–	44700
1 h, 0.5 mg/kg, Male, F344	54.4	–
1 h, 5 mg/kg, Female, F344	–	3300
1 h, 5 mg/kg, Male, F344	2000	–
1 h, 10 mg/kg, Female, Harlan Sprague-Dawley	–	869
1 h, 10 mg/kg, Male, F344	–	2540
1 h, 10 mg/kg, Male, Harlan Sprague Dawley	–	4080
1 h, 10 mg/kg, Male, Harlan Sprague Dawley - this seems too small	–	3450
1 h, 25 mg/kg, Female, F344	–	18400
1 h, 50 mg/kg, Female, F344	–	21100
1 h, 50 mg/kg, Male, Harlan Sprague Dawley	–	30000
1 h, 100 mg/kg, Male, F344	–	59900
1 h, 200 mg/kg, Female, F344	–	91300
1 h, 200 mg/kg, Female, Harlan Sprague Dawley	–	84500
2 h, 5 mg/kg, Female, F344	2560	2750
2 h, 10 mg/kg, Male, F344	–	268
2 h, 10 mg/kg, Male, Harlan Sprague Dawley	2530	2710
2 h, 25 mg/kg, Female, F344	–	18200
2 h, 50 mg/kg, Female, F344	–	23300
2 h, 50 mg/kg, Male, Harlan Sprague Dawley	–	21600
2 h, 100 mg/kg, Female, F344	–	60700
2 h, 200 mg/kg, Female, F344	–	92100
2 h, 200 mg/kg, Female, Harlan Sprague Dawley	–	115000
2 min, 10 mg/kg, Female, F344	513	–
2 min, 10 mg/kg, Male, Harlan Sprague Dawley	–	1260
2 min, 50 mg/kg, Female, F344	–	610
2 min, 50 mg/kg, Male, Harlan Sprague Dawley	–	17700
2 min, 200 mg/kg, Female, F344	–	21500
2 min, 200 mg/kg, Female, Harlan Sprague Dawley	–	91200
3 h, 5 mg/kg, Male, F344	2610	–
4 h, 5 mg/kg, Female, F344	–	2290
4 h, 10 mg/kg, Male, Harlan Sprague Dawley	–	818
4 h, 25 mg/kg, Female, F344	–	16000
4 h, 50 mg/kg, Female, F344	–	23500
4 h, 50 mg/kg, Female, Harlan Sprague Dawley	–	25900
4 h, 50 mg/kg, Male, Harlan Sprague Dawley	–	17600
4 h, 100 mg/kg, Female, Harlan Sprague-Dawley	–	60000
4 h, 100 mg/kg, Male, F344	–	56800
5 h, 200 mg/kg, Female, F344	–	57400
5 h, 200 mg/kg, Female, Harlan Sprague Dawley	–	90700
5 min, 0.5 mg/kg, Male, F344	527	–
5 min, 5 mg/kg, Female, F344	–	1450
5 min, 5 mg/kg, Female, Harlan Sprague-Dawley	6050	–
5 min, 10 mg/kg, Female, F344	2090	–
5 min, 10 mg/kg, Male, Harlan Sprague Dawley	230	–
5 min, 25 mg/kg, Female, F344	–	11700
5 min, 100 mg/kg, Female, Harlan Sprague-Dawley	–	23300
5 min, 100 mg/kg, Male, F344	–	20300
6 h, 5 mg/kg, Female, F344	1440	1900
6 h, 25 mg/kg, Female, F344	–	14800
6 h, 50 mg/kg, Female, F344	–	9520
6 h, 50 mg/kg, Female, Harlan Sprague Dawley	–	19800
6 h, 100 mg/kg, Male, F344	–	56100
8 h, 5 mg/kg, Female, F344	923	827
8 h, 5 mg/kg, Female, Harlan Sprague-Dawley	680	–
8 h, 25 mg/kg, Female, F344	–	16600
8 h, 100 mg/kg, Male, F344	–	71600
9 h, 200 mg/kg, Female, F344	–	68100
9 h, 200 mg/kg, Female, Harlan Sprague Dawley	–	92000
10 h, 5 mg/kg, Male, F344	76.4	–
10 min, 10 mg/kg, Male, Harlan Sprague Dawley	–	3960
10 min, 50 mg/kg, Female, F344	–	34600
10 min, 50 mg/kg, Male, Harlan Sprague Dawley	–	38100
10 min, 200 mg/kg, Female, F344	–	77600
10 min, 200 mg/kg, Female, Harlan Sprague Dawley	–	95200
14 h, 5 mg/kg, Female, F344	354	–
14 h, 25 mg/kg, Female, F344	–	10700
14 h, 25 mg/kg, Female, Harlan Sprague-Dawley	–	10500
14 h, 100 mg/kg, Female, F344	–	54100
20 min, 10 mg/kg, Male, Harlan Sprague Dawley	5700	5760
20 min, 50 mg/kg, Female, F344	–	36100
20 min, 50 mg/kg, Male, Harlan Sprague Dawley	–	40000
20 min, 200 mg/kg, Female, F344	–	103000
20 min, 200 mg/kg, Female, Harlan Sprague Dawley	–	119000
40 min, 10 mg/kg, Female, Harlan Sprague-Dawley	–	2410
40 min, 10 mg/kg, Male, Harlan Sprague Dawley	–	3750
40 min, 50 mg/kg, Female, F344	–	26800
40 min, 50 mg/kg, Male, Harlan Sprague Dawley	–	40200
40 min, 200 mg/kg, Female, F344	–	103000
40 min, 200 mg/kg, Female, Harlan Sprague Dawley	–	126000
50 min, 10 mg/kg, Male, Harlan Sprague Dawley	4030	4440

Rat [5]
Conditions	concentration in plasma [ng/mL]
0.5 h	16900
6 h	14400
